Experimental findings from publication PMC9911399, “Two distinct binding modes provide the RNA-binding protein RbFox with extraordinary sequence specificity” are described below.

Positions count from the first letter of the chain named. Some of the results follow.

T1: RBFOX1 RRM (Homo sapiens, UniProt Q9NWB1 109-208)
T1 sequence: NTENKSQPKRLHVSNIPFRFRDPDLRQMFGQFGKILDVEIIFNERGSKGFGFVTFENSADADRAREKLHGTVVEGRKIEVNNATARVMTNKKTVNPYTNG

B1: AGAAGAA (DNA:RNA)
RNA: GGGAGACCGGAAUUCAGAUUGUCCAGAAGAAUUAAAUCCCGUCGUAGCCACCA
DNA 1: CAATCTGAATTCCGGTCTCCC
DNA 2: TGGTGGCTACGACGGGATT
B2: CCAAGAA (DNA:RNA)
RNA: B1 RNA with A25C, G26C
DNA 1: CAATCTGAATTCCGGTCTCCC
DNA 2: TGGTGGCTACGACGGGATT
B3: GGGUCUU (DNA:RNA)
RNA: B1 RNA with A25G, A27G, A28U, G29C, A30U, A31U
DNA 1: CAATCTGAATTCCGGTCTCCC
DNA 2: TGGTGGCTACGACGGGATT
B4: UCAUAGG (DNA:RNA)
RNA: B1 RNA with A25U, G26C, A28U, G29A, A30G, A31G
DNA 1: CAATCTGAATTCCGGTCTCCC
DNA 2: TGGTGGCTACGACGGGATT
B5: GCAUCCG (DNA:RNA)
RNA: B1 RNA with A25G, G26C, A28U, G29C, A30C, A31G
DNA 1: CAATCTGAATTCCGGTCTCCC
DNA 2: TGGTGGCTACGACGGGATT
B6: UACUACU (DNA:RNA)
RNA: GGGAGACCGGAAUUCAGAUUGUCCUACUACUUUAAAUCCCGUCGUAGCCACCA
DNA 1: CAATCTGAATTCCGGTCTCCC
DNA 2: TGGTGGCTACGACGGGATT
B7: AGUACGU (DNA:RNA)
RNA: B1 RNA with A27U, G29C, A30G, A31U
DNA 1: CAATCTGAATTCCGGTCTCCC
DNA 2: TGGTGGCTACGACGGGATT
B8: CUCUUCU (DNA:RNA)
RNA: B6 RNA with U25C, A26U, A29U
DNA 1: CAATCTGAATTCCGGTCTCCC
DNA 2: TGGTGGCTACGACGGGATT
B9: GGGGUUA (DNA:RNA)
RNA: B1 RNA with A25G, A27G, A28G, G29U, A30U
DNA 1: CAATCTGAATTCCGGTCTCCC
DNA 2: TGGTGGCTACGACGGGATT
B10: GGUAAUU (DNA:RNA)
RNA: B1 RNA with A25G, A27U, G29A, A30U, A31U
DNA 1: CAATCTGAATTCCGGTCTCCC
DNA 2: TGGTGGCTACGACGGGATT
B11: UCCUCGC (DNA:RNA)
RNA: B6 RNA with A26C, A29C, C30G, U31C
DNA 1: CAATCTGAATTCCGGTCTCCC
DNA 2: TGGTGGCTACGACGGGATT
B12: GAUGACG (DNA:RNA)
RNA: B6 RNA with U25G, C27U, U28G, U31G
DNA 1: CAATCTGAATTCCGGTCTCCC
DNA 2: TGGTGGCTACGACGGGATT
B13: AACGCAC (DNA:RNA)
RNA: B1 RNA with G26A, A27C, A28G, G29C, A31C
DNA 1: CAATCTGAATTCCGGTCTCCC
DNA 2: TGGTGGCTACGACGGGATT
B14: GAAGACA (DNA:RNA)
RNA: B6 RNA with U25G, C27A, U28G, U31A
DNA 1: CAATCTGAATTCCGGTCTCCC
DNA 2: TGGTGGCTACGACGGGATT
B15: GAUGAGA (DNA:RNA)
RNA: B6 RNA with U25G, C27U, U28G, C30G, U31A
DNA 1: CAATCTGAATTCCGGTCTCCC
DNA 2: TGGTGGCTACGACGGGATT
B16: CUCUCAU (DNA:RNA)
RNA: B6 RNA with U25C, A26U, A29C, C30A
DNA 1: CAATCTGAATTCCGGTCTCCC
DNA 2: TGGTGGCTACGACGGGATT
B17: UUGGCCU (DNA:RNA)
RNA: B6 RNA with A26U, C27G, U28G, A29C
DNA 1: CAATCTGAATTCCGGTCTCCC
DNA 2: TGGTGGCTACGACGGGATT
B18: CGGGACA (DNA:RNA)
RNA: B1 RNA with A25C, A27G, A28G, G29A, A30C
DNA 1: CAATCTGAATTCCGGTCTCCC
DNA 2: TGGTGGCTACGACGGGATT
B19: GUUGGGG (DNA:RNA)
RNA: B1 RNA with A25G, G26U, A27U, A28G, A30G, A31G
DNA 1: CAATCTGAATTCCGGTCTCCC
DNA 2: TGGTGGCTACGACGGGATT
B20: UAAAAGA (DNA:RNA)
RNA: B1 RNA with A25U, G26A, G29A, A30G
DNA 1: CAATCTGAATTCCGGTCTCCC
DNA 2: TGGTGGCTACGACGGGATT
B21: AUGUAUU (DNA:RNA)
RNA: B6 RNA with U25A, A26U, C27G, C30U
DNA 1: CAATCTGAATTCCGGTCTCCC
DNA 2: TGGTGGCTACGACGGGATT
B22: CUCCGUU (DNA:RNA)
RNA: B6 RNA with U25C, A26U, U28C, A29G, C30U
DNA 1: CAATCTGAATTCCGGTCTCCC
DNA 2: TGGTGGCTACGACGGGATT
B23: CUCCGGG (DNA:RNA)
RNA: B1 RNA with A25C, G26U, A27C, A28C, A30G, A31G
DNA 1: CAATCTGAATTCCGGTCTCCC
DNA 2: TGGTGGCTACGACGGGATT
B24: GAUACAC (DNA:RNA)
RNA: B1 RNA with A25G, G26A, A27U, G29C, A31C
DNA 1: CAATCTGAATTCCGGTCTCCC
DNA 2: TGGTGGCTACGACGGGATT
B25: AACCCGC (DNA:RNA)
RNA: B6 RNA with U25A, U28C, A29C, C30G, U31C
DNA 1: CAATCTGAATTCCGGTCTCCC
DNA 2: TGGTGGCTACGACGGGATT
B26: UAGUGUG (DNA:RNA)
RNA: B6 RNA with C27G, A29G, C30U, U31G
DNA 1: CAATCTGAATTCCGGTCTCCC
DNA 2: TGGTGGCTACGACGGGATT
B27: UACGCAU (DNA:RNA)
RNA: B6 RNA with U28G, A29C, C30A
DNA 1: CAATCTGAATTCCGGTCTCCC
DNA 2: TGGTGGCTACGACGGGATT
B28: AACUUCG (DNA:RNA)
RNA: B6 RNA with U25A, A29U, U31G
DNA 1: CAATCTGAATTCCGGTCTCCC
DNA 2: TGGTGGCTACGACGGGATT
B29: UGUGGCG (DNA:RNA)
RNA: B1 RNA with A25U, A27U, A28G, A30C, A31G
DNA 1: CAATCTGAATTCCGGTCTCCC
DNA 2: TGGTGGCTACGACGGGATT
B30: UGUGGAC (DNA:RNA)
RNA: B1 RNA with A25U, A27U, A28G, A31C
DNA 1: CAATCTGAATTCCGGTCTCCC
DNA 2: TGGTGGCTACGACGGGATT
B31: AAAGAUU (DNA:RNA)
RNA: B6 RNA with U25A, C27A, U28G, C30U
DNA 1: CAATCTGAATTCCGGTCTCCC
DNA 2: TGGTGGCTACGACGGGATT

This experiment addresses T1, RBFOX1 RRM. In words: EMSA; HiTS-Eq, 1 nM pool, 10 min; buffer printed only for the single-RNA assays: 10 mM Tris pH 7.5, 150 mM NaCl, 3.4 mM EDTA, 0.001% NP-40, 30 C. The conditions noted are these: tags: His6 N-terminal (pET28a); label: 5' 32P. The gist of the method: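 Relative association constants, normalised to the cognate motif, were derived by comparing read counts of each RNA species with those of the control reaction. The RNA sequenced was the free fraction, separated by 8% native PAGE after a 10 min equilibration in 50 µL of 1 nM 5′-radiolabelled RNA (7 randomized nucleotides) with increasing concentrations of purified wild-type or mutant RbFox RRM.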
B1: the binding signal is 0.0051 KA relative to UGCAUGU.
Then B2, with 0.00338 KA relative to UGCAUGU.
As for B3, the binding signal is 0.00918 KA relative to UGCAUGU.
With B4 the figure was 0.00483 KA relative to UGCAUGU.
B5: the binding signal was 0.0325 KA relative to UGCAUGU.
Consider B6, for which the binding signal was 0.00344 KA relative to UGCAUGU.
Take B7: the binding signal is 0.00915 KA relative to UGCAUGU.
Regarding B8, the binding signal was 0.00532 KA relative to UGCAUGU.
With B9, the binding signal was 0.0364 KA relative to UGCAUGU.
With B10 the figure was 0.00329 KA relative to UGCAUGU; with B11, 0.00514 KA relative to UGCAUGU.
With B12, the binding signal is 0.0127 KA relative to UGCAUGU.
In the case of B13, the binding signal is 0.0031 KA relative to UGCAUGU.
On to B14, for which the binding signal is 0.00676 KA relative to UGCAUGU.
As for B15, the binding signal is 0.0153 KA relative to UGCAUGU.
Regarding B16, the binding signal is 0.00156 KA relative to UGCAUGU.
In the case of B17, the binding signal was 0.0232 KA relative to UGCAUGU.
With B18 the figure was 0.015 KA relative to UGCAUGU; with B19, 0.0116 KA relative to UGCAUGU; with B20, 0.00608 KA relative to UGCAUGU.
As to B21, the binding signal was 0.00316 KA relative to UGCAUGU.
With B22 the figure was 0.00719 KA relative to UGCAUGU; with B23, 0.00445 KA relative to UGCAUGU.
With B24, the binding signal was 0.00177 KA relative to UGCAUGU.
For the molecule B25, the binding signal is 0.00101 KA relative to UGCAUGU.
In the case of B26, the binding signal was 0.0215 KA relative to UGCAUGU.
As to B27, the binding signal is 0.0127 KA relative to UGCAUGU.
For B28, the binding signal is 0.0158 KA relative to UGCAUGU.
Then B29, with 0.0248 KA relative to UGCAUGU; and B30, with 0.00524 KA relative to UGCAUGU.
Regarding B31, the binding signal is 0.00371 KA relative to UGCAUGU.
